The target in assay [1] is Focal adhesion kinase (FAK) (mouse (endogenous in B16F10)) (UniProt P34152). Put plainly: condition: only vehicle-treated cells, without FAK inhibitor; co-IP; FAK-IP from lysates of vehicle-treated B16F10 cells (no FAK inhibitor), endogenous proteins; immunoblot.
The target of assay [2] is T1, GFP-FERM-R312A/K313A (UniProt P34152).
T1 sequence: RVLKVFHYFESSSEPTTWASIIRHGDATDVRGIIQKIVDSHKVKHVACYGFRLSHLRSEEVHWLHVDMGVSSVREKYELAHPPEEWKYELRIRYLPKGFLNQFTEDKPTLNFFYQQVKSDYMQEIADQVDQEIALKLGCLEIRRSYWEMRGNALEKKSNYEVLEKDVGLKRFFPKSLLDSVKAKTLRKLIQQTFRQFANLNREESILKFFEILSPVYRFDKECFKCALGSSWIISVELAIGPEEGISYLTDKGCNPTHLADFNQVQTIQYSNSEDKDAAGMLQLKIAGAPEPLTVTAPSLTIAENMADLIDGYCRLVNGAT
Nature of the assay: co-IP; GFP-IP from B16F10 cells transfected for 24 h with GFP-FERM-WT, GFP-FERM-NLM or GFP-FERM-R312A/K313A; immunoblot for endogenous CDH1, CDK4 and CDK6. Background: A western blot detects proteins with antibodies after separation by electrophoresis.

Protein sequences, listed by entry. Tags and fused reporters are not part of them.
UniProt Q64261: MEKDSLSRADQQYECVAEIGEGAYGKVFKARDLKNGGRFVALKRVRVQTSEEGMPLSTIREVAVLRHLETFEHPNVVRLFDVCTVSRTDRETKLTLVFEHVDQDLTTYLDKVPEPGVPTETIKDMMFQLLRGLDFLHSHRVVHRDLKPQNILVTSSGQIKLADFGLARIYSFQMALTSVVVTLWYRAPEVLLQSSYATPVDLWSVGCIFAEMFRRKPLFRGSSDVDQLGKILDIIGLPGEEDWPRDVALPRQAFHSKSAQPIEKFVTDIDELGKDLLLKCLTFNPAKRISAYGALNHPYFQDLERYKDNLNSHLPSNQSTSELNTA
UniProt Q00534: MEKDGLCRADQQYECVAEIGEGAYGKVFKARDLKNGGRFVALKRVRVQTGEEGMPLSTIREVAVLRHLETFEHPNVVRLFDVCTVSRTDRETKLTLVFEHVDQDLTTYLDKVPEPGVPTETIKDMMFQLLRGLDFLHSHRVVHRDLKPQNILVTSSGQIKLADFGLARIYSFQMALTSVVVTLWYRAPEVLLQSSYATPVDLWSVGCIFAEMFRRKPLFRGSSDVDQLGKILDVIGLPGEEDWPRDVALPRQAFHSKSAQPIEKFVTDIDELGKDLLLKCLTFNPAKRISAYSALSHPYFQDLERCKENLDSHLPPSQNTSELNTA

The target in assay [3] is T2, GFP-FERM-WT (UniProt P34152).
T2 sequence: T1 sequence with A278R, A279K
Described as above.

The target in assay [4] is Focal adhesion kinase (FAK) (mouse (endogenous in B16F10)) (UniProt P34152). Put plainly: co-IP; FAK-IP from B16F10 lysates, endogenous proteins; cells treated with FAK-I (PF-271, 2.5 uM) with or without MG-132 (10 uM) for 6 h; 1% Triton X-100, 50 mM Hepes, 150 mM NaCl buffer, overnight at 4 °C; immunoblot.
Assay [5] addresses GFP-FAK (full-length FAK) (UniProt P34152). Put plainly: co-IP; GFP-IP from HeLa cells transfected with GFP fusion constructs of FAK, treated with FAK-I and MG-132 for 6 h before immunoprecipitation; immunoblot for endogenous CDK4 and CDK6.
Assay [6] has as its target CDC homolog 1 (CDH1) (mouse (endogenous in B16F10)) (UniProt Q9R1K5). Put plainly: co-IP; CDH1-IP from B16F10 lysates, endogenous proteins; cells treated with FAK-I with or without MG-132 for 6 h; immunoblot.

Changes are numbered by the printed parent chain. Results are given in words; binding and its absence hold for the method and conditions named. Binding seen in cells or lysates may run through a third protein. Some entries that bind do so weakly or less than the wild type. For part of these data: Tags and fused reporters may be left off the sequences shown.

Experimental findings from paper PMC9163754 are described below.

As to “cyclin-dependent kinase 6 (CDK6) (from UniProt Q64261 1-326)”, the binding entry was “no binding” in assay [1], “binds” in assay [2], “binds” in assay [3] and “binds” in assay [4].
For the substance “cyclin-dependent kinase 6 (CDK6) (from UniProt Q00534 1-326)”, the binding result in assay [5] is “binds”.
With “Focal adhesion kinase (FAK) (from UniProt P34152 1-1052)”, the binding result in assay [6] was “binds”.
Regarding “CDC homolog 1 (CDH1) (from UniProt Q9R1K5 1-493)”, the values for the binding result in assay [2], in assay [3] and in assay [4] were “binds weakly”, “binds” and “binds”, respectively.
